Data reported in a collection of fitness landscapes (doi:10.1126/science.1257360).
The other results are listed elsewhere or left out.

B1: PhoQ; a variant is named by its letters at X, in order, P23837 (parent)
chain: MKKLLRLFFPLSLRVRFLLATAAVVLVLSLAYGMVALIGYSVSFDKTTFRLLRGESNLFYTLAKWENNKLHVELPENIDKQSPTMTLIYDENGQLLWAQRDVPWLMKMIQPDWLKSNGFHEIEADVNDTSLLLSGDHSIQQQLQEVREDDDDAEMTHSVAVNVYPATSRMPKLTIVVVDTIPVELKSSYMVWSWFIYVLSANLLLVIPLLWVAAWWSLRPIEALAKEVRELEEHNRELLNPATTRELTSLVRNLNRLLKSERERYDKYRTTLTDLTHSLKTPLXXLQXXLRSLRSEKMSVSDAEPVMLEQISRISQQIGYYLHRASMRGGTLLSRELHPVAPLLDNLTSALNKVYQRKGVNISLDISPEISFVGEQNDFVEVMGNVLDNACKYCLEFVEISARQTDEHLYIVVEDDGPGIPLSKREVIFDRGQRVDTLRPGQGVGLAVAREITEQYEGKIVAGESMLGGARMEVIFGRQHSAPKDE

Variants of: B1
Assay: enrichment ratio after two sorts for PhoP signalling (ratio (wild type AVST 3.29)); higher = more functional
Conditions: with PhoP (E. coli)

Variant | enrichment ratio
KVPC | ≤ 0.25
ERVQ | ≤ 0.25
GCRR | ≤ 0.25
HMYG | ≤ 0.25
VKYW | ≤ 0.25
ILKP | ≤ 0.25
KEPH | ≤ 0.25
VDQA | ≤ 0.25
SGGG | ≤ 0.25
WLHF | ≤ 0.25
YVTV | 0.286
RMAY | ≤ 0.25
YLSF | 0.291
FRCN | ≤ 0.25
TLWA | ≤ 0.25
IWRT | ≤ 0.25
QHHM | ≤ 0.25
RVFF | ≤ 0.25
IWND | ≤ 0.25
VHSV | ≤ 0.25
PAIF | ≤ 0.25
ICRS | ≤ 0.25
TTVA | 3.93
IVIT | ≤ 0.25

Variant | enrichment ratio
NKQR | ≤ 0.25
YPHF | ≤ 0.25
KKRA | ≤ 0.25
RPPQ | ≤ 0.25
QKNT | ≤ 0.25
LFAC | ≤ 0.25
FSHM | 0.793
YTRH | ≤ 0.25
HSMN | ≤ 0.25
SREW | ≤ 0.25
WRFP | 1.04
MLKW | ≤ 0.25
PFLR | ≤ 0.25
RLPP | ≤ 0.25
AIIK | 6.49
VVLM | 3.83
WKIS | ≤ 0.25
MKPP | ≤ 0.25
TFYT | ≤ 0.25
VCDD | ≤ 0.25
AYIF | ≤ 0.25
QQPP | ≤ 0.25
YRNT | ≤ 0.25
HMHG | ≤ 0.25

Variant | enrichment ratio
NIGD | ≤ 0.25
IHFR | ≤ 0.25
SRHC | ≤ 0.25
MLVS | ≤ 0.25
SGQC | 1.76
IGRK | ≤ 0.25
MTDW | ≤ 0.25
LMVG | ≤ 0.25
IKGD | ≤ 0.25
SQPW | ≤ 0.25
FWQP | ≤ 0.25
HRCI | ≤ 0.25
RYIV | ≤ 0.25
APYS | ≤ 0.25
VYWM | ≤ 0.25
EAAM | ≤ 0.25
ASPT | ≤ 0.25
LWNQ | ≤ 0.25
PCCY | ≤ 0.25
LLYN | ≤ 0.25
YFFT | ≤ 0.25
RQCR | ≤ 0.25
WEVS | ≤ 0.25
YWQF | ≤ 0.25

Variant | enrichment ratio
YHYQ | ≤ 0.25
HCPI | ≤ 0.25
TCMN | 58.3
MTCT | ≤ 0.25
EGCV | ≤ 0.25
VEYR | ≤ 0.25
RNYT | ≤ 0.25
FDSG | ≤ 0.25
PYSF | 0.37
NNFL | ≤ 0.25
NKLI | ≤ 0.25
HFNL | ≤ 0.25
VEVE | ≤ 0.25
LVVH | ≤ 0.25
SDNN | ≤ 0.25
MQKP | ≤ 0.25
MREF | ≤ 0.25
MSVD | ≤ 0.25
FSSF | ≤ 0.25
METG | 4.62
WERE | ≤ 0.25
MATP | ≤ 0.25
QRRE | ≤ 0.25
ICCC | ≤ 0.25

Variant | enrichment ratio
QIMK | ≤ 0.25
DWRK | ≤ 0.25
HYAY | ≤ 0.25
DDFE | ≤ 0.25
MRKN | ≤ 0.25
YAQW | ≤ 0.25
SPLT | ≤ 0.25
FIKM | ≤ 0.25
LRVR | ≤ 0.25
STHI | ≤ 0.25
AWKA | ≤ 0.25
ACPY | ≤ 0.25
FLGS | ≤ 0.25
SPYY | ≤ 0.25
MMKL | ≤ 0.25
AIMK | ≤ 0.25
FSKQ | ≤ 0.25
QFTM | ≤ 0.25
MRFG | ≤ 0.25
EPLC | ≤ 0.25
NDAM | ≤ 0.25
FPMS | ≤ 0.25
QHHL | ≤ 0.25
PHKP | ≤ 0.25

Variant | enrichment ratio
INIA | ≤ 0.25
QINI | ≤ 0.25
WGTD | ≤ 0.25
PTKV | ≤ 0.25
VCSG | 0.44
NKRW | ≤ 0.25
ISWT | 2.56
LVMD | ≤ 0.25
SVTH | 11.9
DPNC | ≤ 0.25
TCHF | 8.33
VTLV | 6.75
HSHY | ≤ 0.25
RYSQ | ≤ 0.25
KQHD | ≤ 0.25
DTIE | ≤ 0.25
MQDG | ≤ 0.25
DICV | ≤ 0.25
IGYS | ≤ 0.25
QSWE | ≤ 0.25
SVFH | ≤ 0.25
EGAC | ≤ 0.25
ECIF | ≤ 0.25
FPSI | 0.994

Variant | enrichment ratio
PFMR | ≤ 0.25
ICYG | ≤ 0.25
AIFT | ≤ 0.25
DILR | ≤ 0.25
LNGD | ≤ 0.25
SMEM | ≤ 0.25
VACQ | ≤ 0.25
NNAA | ≤ 0.25
DIPK | ≤ 0.25
LWLF | ≤ 0.25
WRER | ≤ 0.25
FCMD | ≤ 0.25
PQCY | ≤ 0.25
KGSY | ≤ 0.25
DGFQ | ≤ 0.25
LMTM | ≤ 0.25
TIVQ | ≤ 0.25
TFEK | ≤ 0.25
RMIP | ≤ 0.25
VSCY | 0.66
ARCA | ≤ 0.25
YQFE | ≤ 0.25
PLPD | ≤ 0.25
AVCD | 6.23

Variant | enrichment ratio
LAHI | 1.48
IMCN | ≤ 0.25
TLIR | ≤ 0.25
HTRH | ≤ 0.25
LQTK | ≤ 0.25
VGTH | ≤ 0.25
FPQY | ≤ 0.25
SQQC | ≤ 0.25
LNMC | 7.24
IGEI | ≤ 0.25
LQYW | ≤ 0.25
SISG | 8.7
VREW | ≤ 0.25
NIGW | ≤ 0.25
PVFY | ≤ 0.25
HEAA | ≤ 0.25
ALMK | ≤ 0.25
DGDI | ≤ 0.25
ILRR | ≤ 0.25
KIEL | ≤ 0.25
RTEP | ≤ 0.25
TFDA | ≤ 0.25
MNQR | ≤ 0.25
GGGY | ≤ 0.25

Variant | enrichment ratio
WERY | ≤ 0.25
MFQV | ≤ 0.25
EYQK | ≤ 0.25
IPND | ≤ 0.25
SVNM | 0.667
DFPD | ≤ 0.25
RCKS | ≤ 0.25
YLHW | ≤ 0.25
TSIC | 1.47
MPTW | ≤ 0.25
FYAW | ≤ 0.25
EDTH | ≤ 0.25
GSSP | ≤ 0.25
GTMI | ≤ 0.25
VQGE | ≤ 0.25
PSVK | ≤ 0.25
TQLV | 26.3
KAWA | ≤ 0.25
DAGA | ≤ 0.25
DLTL | ≤ 0.25
HENA | ≤ 0.25
SNNY | 8.91
VQHS | ≤ 0.25
QPLG | ≤ 0.25

Variant | enrichment ratio
HDYM | ≤ 0.25
CSVC | ≤ 0.25
FPNA | ≤ 0.25
NPWG | ≤ 0.25
DLPC | ≤ 0.25
RFIK | ≤ 0.25
GCSE | ≤ 0.25
YHTP | ≤ 0.25
QFVW | ≤ 0.25
SKDM | ≤ 0.25
VTDC | ≤ 0.25
LAWN | ≤ 0.25
DNST | ≤ 0.25
KHIA | ≤ 0.25
QSPP | ≤ 0.25
MYNN | ≤ 0.25
YEFN | ≤ 0.25
TSDC | 1.55
ARRF | ≤ 0.25
FIFG | ≤ 0.25
VRVD | ≤ 0.25
KTYI | ≤ 0.25
HKIE | ≤ 0.25
NHWA | ≤ 0.25

Variant | enrichment ratio
GGDC | ≤ 0.25
ALTK | 2.99
FPQF | ≤ 0.25
HTVY | ≤ 0.25
DCNW | ≤ 0.25
DIAH | ≤ 0.25
TARF | ≤ 0.25
PLKA | ≤ 0.25
LHWR | ≤ 0.25
NIQR | ≤ 0.25
EVWL | ≤ 0.25
RKYI | ≤ 0.25
FSEF | ≤ 0.25
VSIC | ≤ 0.25
PDWE | ≤ 0.25
YEVI | ≤ 0.25
SFVQ | ≤ 0.25
YTHD | ≤ 0.25
PTAS | ≤ 0.25
MSDV | ≤ 0.25
KFGL | ≤ 0.25
TKMQ | ≤ 0.25
HVST | ≤ 0.25
AFAP | ≤ 0.25

Variant | enrichment ratio
KGMG | ≤ 0.25
EYTT | ≤ 0.25
KVAW | ≤ 0.25
ILPN | ≤ 0.25
WPCW | ≤ 0.25
RDDW | ≤ 0.25
AARP | ≤ 0.25
CLSW | ≤ 0.25
YLWP | ≤ 0.25
LCMM | 26.9
LMCN | ≤ 0.25
KSQY | ≤ 0.25
MCSI | 12.5
LNNP | ≤ 0.25
HGRN | ≤ 0.25
TAYD | ≤ 0.25
RVDM | ≤ 0.25
VTWC | ≤ 0.25
PVTS | ≤ 0.25
MAFI | 8.07
LVIT | ≤ 0.25
AACL | 11.3
AHWY | ≤ 0.25
IKKP | ≤ 0.25

Variant | enrichment ratio
EQKR | ≤ 0.25
AQFW | ≤ 0.25
FQNN | ≤ 0.25
QQCF | ≤ 0.25
QNNI | ≤ 0.25
QCMF | ≤ 0.25
ADRG | ≤ 0.25
TSDH | 6.53
KMTR | ≤ 0.25
YFWF | ≤ 0.25
TSTW | ≤ 0.25
IQLL | 0.329
DWWH | ≤ 0.25
FQMR | ≤ 0.25
RIES | ≤ 0.25
QHTG | ≤ 0.25
RGEL | ≤ 0.25
EDYP | ≤ 0.25
